In all, about 310,000 compounds went through this assay and about 14,000 (4.5%) showed an effect of 50% or more. Effects have a minus sign here. The list shows a part of the results.
What follows are molecules tested against human ether-à-go-go-related gene (hERG) potassium channel (human, UniProt Q12809) (assay: primary screen, population patch clamp on CHO cells stably expressing hERG).
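Also: peak tail current of the secondary pulse compared with the same well before compound.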

human ether-à-go-go-related gene (hERG) potassium channel, sequence (Q12809 whole entry, looked up): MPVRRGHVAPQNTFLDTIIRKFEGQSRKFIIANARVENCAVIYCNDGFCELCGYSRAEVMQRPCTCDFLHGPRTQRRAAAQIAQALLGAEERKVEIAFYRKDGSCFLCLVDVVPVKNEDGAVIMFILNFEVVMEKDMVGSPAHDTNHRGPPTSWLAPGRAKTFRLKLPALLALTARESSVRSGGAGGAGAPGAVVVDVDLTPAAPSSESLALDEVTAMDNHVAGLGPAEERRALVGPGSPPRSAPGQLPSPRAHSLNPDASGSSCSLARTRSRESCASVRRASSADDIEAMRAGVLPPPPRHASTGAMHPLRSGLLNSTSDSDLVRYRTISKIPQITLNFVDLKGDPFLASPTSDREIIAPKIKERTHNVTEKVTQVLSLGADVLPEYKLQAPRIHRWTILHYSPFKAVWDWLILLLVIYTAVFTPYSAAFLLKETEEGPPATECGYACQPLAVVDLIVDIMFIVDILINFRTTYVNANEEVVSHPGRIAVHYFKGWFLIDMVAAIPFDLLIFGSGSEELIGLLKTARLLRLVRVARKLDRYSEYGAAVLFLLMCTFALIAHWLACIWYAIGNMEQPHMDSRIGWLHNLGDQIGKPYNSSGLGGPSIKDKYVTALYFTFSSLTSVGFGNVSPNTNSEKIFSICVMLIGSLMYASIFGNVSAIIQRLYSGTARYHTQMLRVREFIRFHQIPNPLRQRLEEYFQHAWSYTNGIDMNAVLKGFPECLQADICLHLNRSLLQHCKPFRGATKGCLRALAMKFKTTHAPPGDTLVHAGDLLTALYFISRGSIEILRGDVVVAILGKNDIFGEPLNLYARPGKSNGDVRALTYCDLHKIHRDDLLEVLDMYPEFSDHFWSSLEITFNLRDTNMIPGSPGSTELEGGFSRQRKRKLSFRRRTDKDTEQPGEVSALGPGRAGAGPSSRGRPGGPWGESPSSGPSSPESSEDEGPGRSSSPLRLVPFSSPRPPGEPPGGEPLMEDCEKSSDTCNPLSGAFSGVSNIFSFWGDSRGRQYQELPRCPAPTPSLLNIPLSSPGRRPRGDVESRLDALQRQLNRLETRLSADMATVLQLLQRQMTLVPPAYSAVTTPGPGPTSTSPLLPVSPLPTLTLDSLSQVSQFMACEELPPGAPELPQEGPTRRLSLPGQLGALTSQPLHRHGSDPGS

| Compound | hERG current change (%, negative = inhibition) at 10uM [%] |
| --- | --- |
| CCN(CC)S(=O)(=O)c1ccc(NC(=S)Nc2ccccc2)cc1 | 10.4 |
| O=C(Nc1ccc(F)cc1)N1CCN(c2nc3ccccc3s2)CC1 | 1.48 |
| COC(=O)CCSc1cc([N+](=O)[O-])cc2c1c(C1OCCO1)nn2-c1ccccc1 | 11.6 |
| CC(=O)N1CCCC(C(=O)c2ccc(Oc3ccccc3)cc2)C1 (stereo not shown) | -5.43 |
| CC(NC(=O)COC(=O)CC(c1ccccc1)c1ccccc1)c1ccccc1 (stereo not shown) | -24.7 |
| O=C(Nc1ccccc1)c1c(O)c2c(n(Cc3ccco3)c1=O)CCCC2 | 10.8 |
| CCC(c1nnnn1Cc1ccccc1)N1CCN(C(=O)c2ccco2)CC1 (stereo not shown) | -36.3 |
| Cc1ccc(C(=O)Nc2ccccc2N2CCCC2)cc1S(=O)(=O)N1CCOCC1 | -51.2 |
| CCOc1cc(OCC)c(C(C)=O)cc1OCC | 20.1 |
| CCc1c(O)cc(=O)n(-c2ccccc2)c1-c1ccccc1 | 6.51 |
| Cc1ccc(C)c(NC(=O)COC(=O)CCC(=O)c2cccs2)c1 | 16.6 |
| CCCCOc1cccc(C(=O)Nc2ccc(N3CCN(CC)CC3)cc2)c1 | -31.9 |
| O=C(c1ccc(F)cc1)C1CCN(C(=O)c2ccncc2)CC1 | -22.4 |
| CN(C)C(=O)COC(=O)c1cc(Cl)cc(Cl)c1N | -14.4 |
| Cc1ccc(C(C(=O)NC(C)(C)C)N(CC2CCCO2)C(=O)Cn2nnc(-c3ccc(C)o3)n2)cc1 (stereo not shown) | 1.13 |
| COc1ccc(C(=O)N(CC(=O)NC(C)(C)C)c2ccc3c(c2)OCCO3)cc1OC | 3.82 |
| COC(=O)c1ccc(COC(=O)c2cccn2C)o1 | 0.0514 |
| Cc1cc(C)cc(-n2c(C)cc(C=C(C#N)C#N)c2C)c1 | 3.61 |
| COC(=O)c1cc(S(=O)(=O)N2CCOCC2)c(Cl)cc1N1CCOCC1 | -15 |
| COCCCN1C2=C(C(=O)CC(C)(C)C2)C(c2ccc(O)c(OC)c2)C2=C1CC(C)(C)CC2=O | 11.2 |
| COc1ccc(NC(=O)CCC(=O)OCc2ccc(Br)cc2)cc1 | 0.107 |
| CCC(C)(C)NC(=O)c1ccc2c(c1)N(CC(=O)NC1CCCC1)C(=O)C(C)(C)O2 | 8.4 |
| O=C1C2C3C=CC(C3=C(c3ccccc3)c3ccccc3)C2C(=O)N1Cc1ccccc1 (stereo not shown) | 16.4 |
| Cc1cc(NS(=O)(=O)c2ccc(Br)s2)no1 | 17.4 |
| CCOc1ccc(NC(=O)CN(C)C(=O)CCCOc2ccc(Br)cc2)cc1OCC | 3.76 |
| CCC(=O)n1nc(-c2ccccc2)nc1N | 9.61 |
| CC1CCC(NC(=O)CN2C(=O)NC(C)(C)C2=O)CC1 (stereo not shown) | 10.4 |
| COc1ccc(S(=O)(=O)Nc2nc3ccccc3nc2NCc2ccc3c(c2)OCO3)cc1 | 31.5 |

| Compound | hERG current change (%, negative = inhibition) at 10uM [%] |
| --- | --- |
| O=C(NCCN1CCN(C(=O)c2ccc([N+](=O)[O-])cc2)CC1)C(=O)Nc1ccc(F)cc1 | -76.8 |
| O=C(c1ccco1)N1CCN(S(=O)(=O)c2ccc(Cl)s2)CC1 | -21.1 |
| CS/C(=N\S(=O)(=O)c1ccc(Cl)cc1)c1ccccc1 | -28.1 |
| COc1ccc(CCN2C(=O)CC(N3CCN(c4ccccn4)CC3)C2=O)cc1OC (stereo not shown) | 3.42 |
| COc1ccc(OC)c(S(=O)(=O)Nc2ccccc2SC)c1 | -15.2 |
| CC(NC(=O)CC1CCCCC1)c1ccccc1 (stereo not shown) | 17.4 |
| COc1ccc(C)cc1NC(=O)CN1CCN(S(=O)(=O)c2ccc(F)cc2)CC1 | 7.19 |
| CCOC(=O)CSc1nnc(-c2cccnc2)o1 | 7.96 |
| Cc1cc(-c2nnc(SCC(=O)Nc3nc(-c4ccccc4)cs3)o2)no1 | -1.5 |
| CCOc1ccc(OCCCC(=O)ON=C(N)c2ccccc2C)cc1 | 1.43 |
| Cc1ccc(C2=NO[C@@](CC(=O)O)(C(=O)Nc3ccc4c(c3)OCCO4)C2)cc1 | 11.8 |
| COC(=O)C1=C(CS(=O)(=O)c2ccc(Cl)cc2)NC(=O)NC1c1ccc(O)cc1 (stereo not shown) | 7.7 |
| CC[n+]1c(/C=C/c2cc([N+](=O)[O-])ccc2O)ccc2ccccc21.[I-] | -27.3 |
| CCOc1ccc(NC(=O)CSc2nc3ccccc3c(=O)n2CCNC(C)=O)cc1 | -6.93 |
| O=C(COC(=O)Cc1ccc(F)cc1)NC(=O)NC1CCCC1 | -4.92 |
| Cc1cc(N=Nc2ccc(Cl)cc2)cc(CN2CCCC2)c1O | 10.3 |
| Cc1cc(C(=O)Nc2cccc(NC(=O)c3ccco3)c2)ccc1[N+](=O)[O-] | 6.11 |
| COCCN1Cc2cccc(C(=O)Nc3ccc(C)cc3)c2C1=O | -27.3 |
| C#CCOCCOCCOCCNc1nc(N2CCN(C(=O)[C@H]([C@@H](C)CC)n3cc(CCC[NH+]=C(N)N)nn3)CC2)nc(N2CCN(C(=O)[C@H](CCCC[NH3+])n3cc(CCCC)nn3)CC2)n1.[Cl-] | 7.25 |
| CC1CCc2cc(F)ccc2N1C(=O)CSc1nnc2c(n1)[nH]c1ccc(F)cc12 (stereo not shown) | 20.7 |
| Cc1ccc(SCC(=O)N2CCOCC2)cc1 | 4.71 |
| COc1ccccc1OCCNCC(O)COc1cccc2[nH]c3ccccc3c12 (stereo not shown) | -65.6 |
| O=Cc1ccc(OCc2nnc(-c3ccccc3Br)o2)cc1 | -22.3 |
| Nn1c(COc2ccccc2F)nnc1SCC(=O)NC1CCS(=O)(=O)C1 (stereo not shown) | -7.72 |
| CCOC(=S)SCc1cn2cccc(C)c2n1 | -11.5 |
| N#Cc1ccccc1S(=O)(=O)Nc1ccc2c(c1)C(=O)OC2 | 15.3 |
| O=C1Nc2cc(C(=O)NCCCN3CCOCC3)ccc2S/C1=C/c1cccc(Cl)c1 | 9.36 |
